Read-outs that look alike come from different tables or passages of the source.
How the values were obtained:
[1] = target: GST-His6-BICD2-CT (aa 630–820) R690C (mouse) (UniProt Q921C5); assay: pull-down; GST-His6-BICD2-CT WT or mutant on glutathione magnetic beads, incubated 3 hrs at 4°C with untransfected or GFP-Nesprin-2 expressing HeLaM lysate (RIPA buffer); immunoblot with anti-RanBP2, anti-GFP and anti-GST, signal ratio normalised to wildtype
[2] = target: GST-His6-BICD2-CT (aa 630–820) R690C (mouse) (UniProt Q921C5); assay: as above; remark: listed apart in the source

UniProt Q921C5, sequence (Q921C5 630-820 R690C): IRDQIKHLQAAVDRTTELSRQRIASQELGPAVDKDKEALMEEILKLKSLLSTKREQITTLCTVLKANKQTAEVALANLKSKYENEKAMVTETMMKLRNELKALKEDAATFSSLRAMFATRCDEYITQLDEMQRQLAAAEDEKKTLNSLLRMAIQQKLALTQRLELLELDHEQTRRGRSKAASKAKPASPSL

Question: With “RanBP2, endogenous in HeLaM cells (a stretch of the chain, letters omitted) (natural protein)” as the substance, how does the fold change in RanBP2 binding against wildtype BICD2-CT [1] read?
Answer: The fold change in RanBP2 binding against wildtype BICD2-CT was 2.8 fold.

Question: And the fold change in RanBP2 binding against wildtype BICD2-CT [2]?
Answer: Its fold change in RanBP2 binding against wildtype BICD2-CT is 2 fold.
